Results on 40 molecules are retold here after the antibiotic and cytotoxicity screens of Wong et al. (2023).

The structures appear in SMILES notation. Some of the results follow.

One experiment has as its system HepG2. Briefly: cytotoxicity call (relative viability < 0.9). The conditions noted are these: 10 µM.
Turning to `CO[C@@H]1CN(C)C(=O)c2cc(NS(=O)(=O)c3cn(C)cn3)ccc2OC[C@@H](C)N(CC2CC2)C[C@@H]1C`, the cytotoxicity call was “inactive”. Turning to `CNC[C@H]1Oc2c(NS(=O)(=O)c3cn(C)cn3)cccc2C(=O)N([C@H](C)CO)C[C@H]1C`, the cytotoxicity call was “inactive”. Take `C[C@@H]1CCCCO[C@H](CN(C)S(=O)(=O)c2ccc(Cl)cc2)[C@H](C)CN([C@H](C)CO)C(=O)c2cc(NC(=O)Cc3ccccc3)ccc2O1`: the cytotoxicity call is “active”. As to `CC(C)=CCCC(C)=CCC1=C(C)C(=O)c2ccccc2C1=O`, the cytotoxicity call is “inactive”. With `Cc1cc2cccc(C(=O)N[C@H]3CC[C@@H](N)CC3)c2o1`, the cytotoxicity call is “inactive”. Same read-out and setting: as for `C[C@@H]1CN([C@@H](C)CO)C(=O)Cc2cc(NC(=O)CCC(F)(F)F)ccc2O[C@H]1CN(C)Cc1ccc(Oc2ccccc2)cc1`, the entry is “active”. For the molecule `COCC#Cc1cnc2c(c1)C(=O)N([C@H](C)CO)C[C@@H](C)[C@@H](CN(C)C(=O)c1ccc3c(c1)OCO3)O2`, the cytotoxicity call is “inactive”. `C[C@@H]1CCCCO[C@@H](CN(C)C(=O)CCC(F)(F)F)[C@@H](C)CN([C@@H](C)CO)C(=O)c2cc(NS(=O)(=O)c3ccc(Cl)cc3)ccc2O1`: the cytotoxicity call was “inactive”. The same measure, in the same setting: as for `COC(=O)c1c(CC[C@@H](CO)NC(=O)N[C@@H](Cc2ccccc2)Cn2cc(-c3ccccn3)nn2)oc(C(=O)N2CCOCC2)c1C(=O)OC`, the entry is “inactive”. Take `Cc1noc(C)c1NC(=O)Nc1ccc2c(c1)C(=O)N([C@@H](C)CO)C[C@H](C)[C@@H](CN(C)Cc1ccc(C(=O)O)cc1)OCCCC[C@H](C)O2`: the cytotoxicity call was “inactive”. With `C[C@@H]1CCCCO[C@@H](CN(C)Cc2ccncc2)[C@@H](C)CN([C@@H](C)CO)C(=O)c2cc(NC(=O)C3CCCCC3)ccc2O1`, the cytotoxicity call is “inactive”. Still for that read-out and setting: as for `O=C(CS)NCCCCCNC(=O)[C@H]1C[C@H]2C(=O)NCC(=O)N2[C@H]1c1cccc(OCCO)c1`, the entry is “inactive”.

In another experiment the test system is S. aureus RN4220. Briefly: growth inhibition call (relative growth <= 0.2). To be noted: 50 µM.
`C[C@H](CO)N1C[C@H](C)[C@@H](CN(C)Cc2ccc(Oc3ccccc3)cc2)Oc2ccc(NC(=O)NC3CCCCC3)cc2CC1=O`: the growth inhibition call was “inactive”.

As for `Cc1noc(C)c1NC(=O)Nc1ccc2c(c1)C(=O)N([C@@H](C)CO)C[C@@H](C)[C@H](CN(C)C(=O)Nc1ccc3c(c1)OCO3)OCCCC[C@H](C)O2`, the growth inhibition call was “inactive”. `C[C@@H]1CN([C@@H](C)CO)C(=O)c2cc(NC(=O)Cn3cnnn3)ccc2O[C@H]1CN(C)Cc1ccc(C(F)(F)F)cc1`: the growth inhibition call was “inactive”. On to `CC(C)NC(=O)N(C)C[C@@H]1Oc2ccc(NS(=O)(=O)c3ccc(F)cc3)cc2CC(=O)N([C@H](C)CO)C[C@H]1C`, for which the growth inhibition call is “inactive”.

Take `C[C@H](CO)N1C[C@H](C)[C@H](CN(C)S(=O)(=O)c2cn(C)cn2)Oc2ccc(NC(=O)CCCN(C)C)cc2C1=O`: the growth inhibition call was “inactive”. On the same count and under the same terms, as for `C[C@@H]1CCCCO[C@@H](CN(C)S(=O)(=O)c2cn(C)cn2)[C@H](C)CN([C@H](C)CO)C(=O)c2cc(NC(=O)Nc3cccc4ccccc34)ccc2O1`, the entry is “inactive”; as for `CC[C@@H](NC)C(=O)O`, “inactive”; as for `C[C@@H]1CCCCO[C@H](CN(C)Cc2ccccc2)[C@@H](C)CN([C@H](C)CO)C(=O)c2cc(NS(=O)(=O)c3ccc(Cl)cc3)ccc2O1`, “inactive”. On the same count and under the same terms, as for `Cc1noc(C)c1S(=O)(=O)Nc1ccc2c(c1)C(=O)N([C@@H](C)CO)C[C@@H](C)[C@@H](CN(C)C(=O)NC1CCCCC1)O2`, the entry is “inactive”. Take `Cc1ccc(S(=O)(=O)N(C)C[C@@H]2OCCCC[C@H](C)Oc3ccc(NC(=O)Nc4ccc(C(F)(F)F)cc4)cc3C(=O)N([C@H](C)CO)C[C@H]2C)cc1`: the growth inhibition call was “inactive”. Turning to `Cc1ccc(S(=O)(=O)NCC[C@@H]2CC[C@H](NS(=O)(=O)c3ccccc3Cl)[C@H](CO)O2)cc1`, the growth inhibition call was “inactive”. On to `C[C@@H]1CN([C@@H](C)CO)C(=O)c2cc(NC(=O)Cc3ccccc3)ccc2O[C@@H](C)CCCCO[C@@H]1CN(C)Cc1ccncc1`, for which the growth inhibition call was “inactive”.

For the molecule `COc1ccc2c3c([nH]c2c1)[C@H](CO)N(CC1CCCC1)C[C@]13CCN(CC1)C(=O)Nc1cccc(c1)F`, the growth inhibition call was “inactive”. As for `Cc1noc(C)c1S(=O)(=O)N(C)C[C@H]1OCCCC[C@H](C)Oc2ccc(NC(=O)Nc3ccc(F)cc3)cc2C(=O)N([C@@H](C)CO)C[C@@H]1C`, the growth inhibition call was “inactive”.

As for `O=C(CN1CCOCC1)NCC[C@H]1CC[C@@H](NC(=O)Nc2ccccc2)[C@H](CO)O1`, the growth inhibition call is “inactive”. In the case of `C[C@@H]1CN([C@H](C)CO)C(=O)Cc2cc(NS(=O)(=O)c3ccc(Cl)cc3)ccc2O[C@H]1CN(C)Cc1ccc(C(=O)Nc2ccccc2N)cc1`, the growth inhibition call is “inactive”. Still for that read-out and setting: as for `Cc1ccc(S(=O)(=O)N[C@H](C(=O)NCCn2cc(CN3C(=O)COC[C@H]3c3ccccc3)nn2)C(C)C)cc1`, the entry is “inactive”; as for `O=C(C[C@@H]1CC[C@@H]2[C@H](COC[C@H](O)CN2S(=O)(=O)c2ccc(Oc3ccccc3)cc2)O1)NCCN1CCCCC1`, “inactive”; as for `C[C@@H]1O[C@@H](O[C@H]2[C@H](Oc3cc(O)c4c(c3)O[C@H](c3ccc(O)cc3)CC4=O)O[C@H](CO)[C@@H](O)[C@@H]2O)[C@H](O)[C@H](O)[C@H]1O`, “inactive”. As for `Cc1ccc(S(=O)(=O)N(C)C[C@H]2Oc3ccc(NC(=O)CCCN(C)C)cc3CC(=O)N([C@H](C)CO)C[C@@H]2C)cc1`, the growth inhibition call is “inactive”. For the molecule `C[C@@H]1CN([C@H](C)CO)C(=O)c2c(c3ccccc3n2C)-c2ccccc2CO[C@@H]1CN(C)S(=O)(=O)c1ccc(C(F)(F)F)cc1`, the growth inhibition call was “inactive”. For the molecule `C[C@H]1CN([C@@H](C)CO)C(=O)Cc2cc(NC(=O)Nc3ccccc3)ccc2O[C@@H]1CN(C)Cc1ccc(Cl)c(Cl)c1`, the growth inhibition call was “inactive”.

As to `C[C@@H](NC(=O)C[C@@H]1CC[C@@H](NC(=O)CN2CCOCC2)[C@H](CO)O1)c1ccccc1`, the growth inhibition call was “inactive”. `CC1(C)OC2CC(=O)OCC23C1CC(=O)C1(C)C3CCC2(C)C(c3ccoc3)OC(=O)C3OC321` (configuration not stated): the growth inhibition call is “inactive”. Regarding `COc1ccc(cc1)NC(=O)N1C[C@]2(C1)CN([C@@H](CO)c1[nH]c3cc(ccc3c12)OC)C(=O)CN1CCOCC1`, the growth inhibition call is “inactive”. On the same count and under the same terms, as for `CN(C)C(=O)CN1C[C@@H]2CCN(C(=O)NCc3ccccc3)CC[C@H]2S1(=O)=O`, the entry is “inactive”. As to `CC(C)(C)C(=O)N[C@@H]1CC(=O)N(C2CC2)C1`, the growth inhibition call was “inactive”. In the case of `C[C@H](CO)N1C[C@H](C)[C@@H](CN(C)C(=O)Nc2cccc3ccccc23)OCCCC[C@H](C)Oc2ccc(NC(=O)c3ccncc3)cc2C1=O`, the growth inhibition call was “inactive”.

Take `CO[C@@H]1CN(C)C(=O)c2cc(NS(=O)(=O)c3cn(C)cn3)ccc2OC[C@@H](C)N(CC2CC2)C[C@@H]1C`: the growth inhibition call was “inactive”.

Turning to `CNC[C@H]1Oc2c(NS(=O)(=O)c3cn(C)cn3)cccc2C(=O)N([C@H](C)CO)C[C@H]1C`, the growth inhibition call is “inactive”. For `C[C@@H]1CCCCO[C@H](CN(C)S(=O)(=O)c2ccc(Cl)cc2)[C@H](C)CN([C@H](C)CO)C(=O)c2cc(NC(=O)Cc3ccccc3)ccc2O1`, the growth inhibition call was “inactive”.

With `CC(C)=CCCC(C)=CCC1=C(C)C(=O)c2ccccc2C1=O`, the growth inhibition call was “inactive”. In the case of `Cc1cc2cccc(C(=O)N[C@H]3CC[C@@H](N)CC3)c2o1`, the growth inhibition call is “inactive”.

Take `C[C@@H]1CN([C@@H](C)CO)C(=O)Cc2cc(NC(=O)CCC(F)(F)F)ccc2O[C@H]1CN(C)Cc1ccc(Oc2ccccc2)cc1`: the growth inhibition call is “inactive”.

With `COCC#Cc1cnc2c(c1)C(=O)N([C@H](C)CO)C[C@@H](C)[C@@H](CN(C)C(=O)c1ccc3c(c1)OCO3)O2`, the growth inhibition call was “inactive”.

As to `C[C@@H]1CCCCO[C@@H](CN(C)C(=O)CCC(F)(F)F)[C@@H](C)CN([C@@H](C)CO)C(=O)c2cc(NS(=O)(=O)c3ccc(Cl)cc3)ccc2O1`, the growth inhibition call is “inactive”. In the case of `COC(=O)c1c(CC[C@@H](CO)NC(=O)N[C@@H](Cc2ccccc2)Cn2cc(-c3ccccn3)nn2)oc(C(=O)N2CCOCC2)c1C(=O)OC`, the growth inhibition call was “inactive”. Same read-out and setting: as for `Cc1noc(C)c1NC(=O)Nc1ccc2c(c1)C(=O)N([C@@H](C)CO)C[C@H](C)[C@@H](CN(C)Cc1ccc(C(=O)O)cc1)OCCCC[C@H](C)O2`, the entry is “inactive”; as for `C[C@@H]1CCCCO[C@@H](CN(C)Cc2ccncc2)[C@@H](C)CN([C@@H](C)CO)C(=O)c2cc(NC(=O)C3CCCCC3)ccc2O1`, “inactive”. The same measure, in the same setting: as for `O=C(CS)NCCCCCNC(=O)[C@H]1C[C@H]2C(=O)NCC(=O)N2[C@H]1c1cccc(OCCO)c1`, the entry is “inactive”.
